# Results from the supplement of paper PMC8728848.
# Some of the results follow.
# Assays:
# Experiment in all cases: glycan array binding signal (z-score within array); higher = stronger binding
# Conditions in all cases: glycan notation: IUPAC condensed, linker removed
# GlcNAc(b1-3)Gal(b1-4)Glc = target: GlcNAc(b1-3)Gal(b1-4)Glc
# Outline: (§1)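 The binding signal is a Z-score computed within each array. Data were drawn from 3228 arrays in the Consortium for Functional Glycomics database, restricted to those with a known protein sequence. Scores were averaged over arrays of the same protein sequence at different concentrations or buffers, and over linkers, and negative values can be taken as non-binding.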
# [1] = target: GlcNAc(b1-3)Gal(b1-4)GlcNAc
# Outline: as §1
# [2] = target: GlcNAc(b1-3)Gal(b1-4)GlcNAc(b1-2)Man(a1-3)[GlcNAc(b1-3)Gal(b1-4)GlcNAc(b1-2)Man(a1-6)]Man(b1-4)GlcNAc(b1-4)GlcNAc
# Outline: as §1
# [3] = target: GlcNAc(b1-3)Gal(b1-4)GlcNAc(b1-2)Man(a1-3)[GlcNAc(b1-3)Gal(b1-4)GlcNAc(b1-2)Man(a1-6)]Man(b1-4)GlcNAc(b1-4)[Fuc(a1-6)]GlcNAc
# Outline: as §1
# [4] = target: GlcNAc(b1-3)Gal(b1-4)GlcNAc(b1-2)[GlcNAc(b1-3)Gal(b1-4)GlcNAc(b1-6)]Man(a1-6)[GlcNAc(b1-3)Gal(b1-4)GlcNAc(b1-2)Man(a1-3)]Man(b1-4)GlcNAc(b1-4)GlcNAc
# Outline: as §1
# [5] = target: GlcNAc(b1-3)Gal(b1-4)GlcNAc(b1-3)Gal(b1-4)GlcNAc
# Outline: as §1
# [6] = target: GlcNAc(b1-3)Gal(b1-4)GlcNAc(b1-3)Gal(b1-4)GlcNAc(b1-2)Man(a1-3)[GlcNAc(b1-3)Gal(b1-4)GlcNAc(b1-3)Gal(b1-4)GlcNAc(b1-2)Man(a1-6)]Man(b1-4)GlcNAc(b1-4)GlcNAc
# Outline: as §1
# [7] = target: GlcNAc(b1-3)Gal(b1-4)GlcNAc(b1-3)Gal(b1-4)GlcNAc(b1-2)Man(a1-3)[GlcNAc(b1-3)Gal(b1-4)GlcNAc(b1-3)Gal(b1-4)GlcNAc(b1-2)Man(a1-6)]Man(b1-4)GlcNAc(b1-4)[Fuc(a1-6)]GlcNAc
# Outline: as §1
# [8] = target: GlcNAc(b1-3)Gal(b1-4)GlcNAc(b1-3)Gal(b1-4)GlcNAc(b1-2)[GlcNAc(b1-3)Gal(b1-4)GlcNAc(b1-3)Gal(b1-4)GlcNAc(b1-6)]Man(a1-6)[GlcNAc(b1-3)Gal(b1-4)GlcNAc(b1-3)Gal(b1-4)GlcNAc(b1-2)Man(a1-3)]Man(b1-4)GlcNAc(b1-4)[Fuc(a1-6)]GlcNAc
# Outline: as §1
# [9] = target: GlcNAc(b1-3)Gal(b1-4)GlcNAc(b1-3)Gal(b1-4)GlcNAc(b1-3)Gal(b1-4)GlcNAc(b1-2)Man(a1-3)[GlcNAc(b1-3)Gal(b1-4)GlcNAc(b1-3)Gal(b1-4)GlcNAc(b1-3)Gal(b1-4)GlcNAc(b1-2)Man(a1-6)]Man(b1-4)GlcNAc(b1-4)GlcNAc
# Outline: as §1
# [10] = target: GlcNAc(b1-3)Gal(b1-4)GlcNAc(b1-3)Gal(b1-4)GlcNAc(b1-3)Gal(b1-4)GlcNAc(b1-2)Man(a1-3)[GlcNAc(b1-3)Gal(b1-4)GlcNAc(b1-3)Gal(b1-4)GlcNAc(b1-3)Gal(b1-4)GlcNAc(b1-2)Man(a1-6)]Man(b1-4)GlcNAc(b1-4)[Fuc(a1-6)]GlcNAc
# Outline: as §1
# [11] = target: GlcNAc(b1-3)Gal(b1-4)GlcNAc(b1-3)Gal(b1-4)GlcNAc(b1-3)Gal(b1-4)GlcNAc(b1-2)[GlcNAc(b1-3)Gal(b1-4)GlcNAc(b1-3)Gal(b1-4)GlcNAc(b1-3)Gal(b1-4)GlcNAc(b1-6)]Man(a1-6)[GlcNAc(b1-3)Gal(b1-4)GlcNAc(b1-3)Gal(b1-4)GlcNAc(b1-3)Gal(b1-4)GlcNAc(b1-2)Man(a1-3)]Man(b1-4)GlcNAc(b1-4)[Fuc(a1-6)]GlcNAc
# Outline: as §1
# [12] = target: GlcNAc(b1-3)Gal(b1-4)GlcNAc(b1-3)Gal(b1-4)GlcNAc(b1-3)Gal(b1-4)GlcNAc(b1-3)Gal(b1-4)GlcNAc(b1-2)Man(a1-3)[GlcNAc(b1-3)Gal(b1-4)GlcNAc(b1-3)Gal(b1-4)GlcNAc(b1-3)Gal(b1-4)GlcNAc(b1-3)Gal(b1-4)GlcNAc(b1-2)Man(a1-6)]Man(b1-4)GlcNAc(b1-4)GlcNAc
# Outline: as §1
# [13] = target: GlcNAc(b1-3)Gal(b1-4)GlcNAc(b1-3)Gal(b1-4)GlcNAc(b1-3)Gal(b1-4)GlcNAc(b1-3)Gal(b1-4)GlcNAc(b1-2)Man(a1-3)[GlcNAc(b1-3)Gal(b1-4)GlcNAc(b1-3)Gal(b1-4)GlcNAc(b1-3)Gal(b1-4)GlcNAc(b1-3)Gal(b1-4)GlcNAc(b1-2)Man(a1-6)]Man(b1-4)GlcNAc(b1-4)[Fuc(a1-6)]GlcNAc
# Outline: as §1
# [14] = target: GlcNAc(b1-3)Gal(b1-4)GlcNAc(b1-3)Gal(b1-4)GlcNAc(b1-3)Gal(b1-4)GlcNAc(b1-3)Gal(b1-4)GlcNAc(b1-2)[GlcNAc(b1-3)Gal(b1-4)GlcNAc(b1-3)Gal(b1-4)GlcNAc(b1-3)Gal(b1-4)GlcNAc(b1-3)Gal(b1-4)GlcNAc(b1-6)]Man(a1-6)[GlcNAc(b1-3)Gal(b1-4)GlcNAc(b1-3)Gal(b1-4)GlcNAc(b1-3)Gal(b1-4)GlcNAc(b1-3)Gal(b1-4)GlcNAc(b1-2)Man(a1-3)]Man(b1-4)GlcNAc(b1-4)[Fuc(a1-6)]GlcNAc
# Outline: as §1
# [15] = target: GlcNAc(b1-3)Gal(b1-4)GlcNAc(b1-3)Gal(b1-4)GlcNAc(b1-3)GalNAc
# Outline: as §1
# [16] = target: GlcNAc(b1-3)Gal(b1-4)GlcNAc(b1-3)GalNAc
# Outline: as §1
# [17] = target: GlcNAc(b1-3)Gal(b1-4)GlcNAc(b1-3)[GlcNAc(b1-3)Gal(b1-4)GlcNAc(b1-3)]GalNAc
# Outline: as §1
# [18] = target: GlcNAc(b1-3)Gal(b1-4)GlcNAc(b1-6)[Gal(b1-3)]GalNAc
# Outline: as §1
# [19] = target: GlcNAc(b1-3)Gal(b1-4)GlcNAc(b1-6)[GlcNAc(b1-3)Gal(b1-3)]GalNAc
# Outline: as §1
# [20] = target: GlcNAc(b1-3)Gal(b1-4)GlcNAc(b1-6)[GlcNAc(b1-3)]Gal(b1-4)GlcNAc
# Outline: as §1
# GlcNAc(b1-3)GalNAc = target: GlcNAc(b1-3)GalNAc
# Outline: as §1
# GlcNAc(b1-3)Man = target: GlcNAc(b1-3)Man
# Outline: as §1
# [21] = target: GlcNAc(b1-3)[GlcNAc(b1-4)][GlcNAc(b1-6)]GlcNAc
# Outline: as §1
# [22] = target: GlcNAc(b1-3)[GlcNAc(b1-6)]Gal(b1-4)GlcNAc
# Outline: as §1
# [23] = target: GlcNAc(b1-3)[GlcNAc(b1-6)]GalNAc
# Outline: as §1
# [24] = target: GlcNAc(b1-4)Gal(b1-4)GlcNAc
# Outline: as §1
# GlcNAc(b1-4)GlcNAc = target: GlcNAc(b1-4)GlcNAc
# Outline: as §1
# [25] = target: GlcNAc(b1-4)GlcNAc(b1-4)GlcNAc
# Outline: as §1
# [26] = target: GlcNAc(b1-4)GlcNAc(b1-4)GlcNAc(b1-4)GlcNAc(b1-4)GlcNAc
# Outline: as §1
# [27] = target: GlcNAc(b1-4)GlcNAc(b1-4)GlcNAc(b1-4)GlcNAc(b1-4)GlcNAc(b1-4)GlcNAc
# Outline: as §1
# [28] = target: GlcNAc(b1-4)[GlcNAc(b1-6)]GalNAc
# Outline: as §1
# [29] = target: GlcNAc(b1-6)Gal(b1-4)GlcNAc
# Outline: as §1
# GlcNAc(b1-6)GalNAc = target: GlcNAc(b1-6)GalNAc
# Outline: as §1
# [30] = target: GlcNAc6S(b1-3)Gal(b1-4)GlcNAc
# Outline: as §1
# Kdn(a2-3)Gal(b1-3)GalNAc = target: Kdn(a2-3)Gal(b1-3)GalNAc
# Outline: as §1
# Kdn(a2-3)Gal(b1-3)GlcNAc = target: Kdn(a2-3)Gal(b1-3)GlcNAc
# Outline: as §1
# Kdn(a2-3)Gal(b1-4)Glc = target: Kdn(a2-3)Gal(b1-4)Glc
# Outline: as §1
# Kdn(a2-3)Gal(b1-4)GlcNAc = target: Kdn(a2-3)Gal(b1-4)GlcNAc
# Outline: as §1
# [31] = target: Kdn(a2-3)Gal(b1-4)[Fuc(a1-3)]GlcNAc
# Outline: as §1
# Kdn(a2-6)Gal(b1-4)GlcNAc = target: Kdn(a2-6)Gal(b1-4)GlcNAc
# Outline: as §1
# [32] = target: Man(a1-2)Man(a1-2)Man(a1-3)Man
# Outline: as §1
# [33] = target: Man(a1-2)Man(a1-2)Man(a1-6)[Man(a1-3)]Man
# Outline: as §1
# Man(a1-2)Man(a1-3)Man = target: Man(a1-2)Man(a1-3)Man
# Outline: as §1
# [34] = target: Man(a1-2)Man(a1-3)[Man(a1-2)Man(a1-6)]Man
# Outline: as §1
binder,measurement,setting,value
rCnSL-proA (Clitocybe nebularis) (protein) AAFFSLVVLLALLPFGIHASALPSTELTPRVNPNLPGPNDVFVGFRGTNNIVGAIYEKDGIKDTPLNNGADAEMGPGSYITDGLFTARIFASGSAGNNPGTTATVCKIYASGVQWRGAPKGYIPVAYFGNGPTAEQRRQTYLRTLGLPGTAIRFGNLNTNPGQGPTAPRQMVVPPGPLRSLLKASCFPAADTRLPQTLHYFEKRVDWNIITAADSQTWGH,glycan array binding signal (z-score),GlcNAc(b1-3)Gal(b1-4)Glc,-0.626
same,glycan array binding signal (z-score),[1],-0.454
same,glycan array binding signal (z-score),[2],0.077
same,glycan array binding signal (z-score),[3],-0.353
same,glycan array binding signal (z-score),[4],-0.547
same,glycan array binding signal (z-score),[5],-0.255
same,glycan array binding signal (z-score),[6],3.02
same,glycan array binding signal (z-score),[7],0.405
same,glycan array binding signal (z-score),[8],-0.859
same,glycan array binding signal (z-score),[9],-0.215
same,glycan array binding signal (z-score),[10],0.698
same,glycan array binding signal (z-score),[11],-1.06
same,glycan array binding signal (z-score),[12],-0.269
same,glycan array binding signal (z-score),[13],0.053
same,glycan array binding signal (z-score),[14],-0.432
same,glycan array binding signal (z-score),[15],-0.454
same,glycan array binding signal (z-score),[16],-0.133
same,glycan array binding signal (z-score),[17],0.25
same,glycan array binding signal (z-score),[18],-0.117
same,glycan array binding signal (z-score),[19],-0.125
same,glycan array binding signal (z-score),[20],-0.668
same,glycan array binding signal (z-score),GlcNAc(b1-3)GalNAc,-0.561
same,glycan array binding signal (z-score),GlcNAc(b1-3)Man,0.735
same,glycan array binding signal (z-score),[21],-0.363
same,glycan array binding signal (z-score),[22],-0.723
same,glycan array binding signal (z-score),[23],-0.541
same,glycan array binding signal (z-score),[24],0.712
same,glycan array binding signal (z-score),GlcNAc(b1-4)GlcNAc,-0.274
same,glycan array binding signal (z-score),[25],-0.208
same,glycan array binding signal (z-score),[26],-0.146
same,glycan array binding signal (z-score),[27],-0.305
same,glycan array binding signal (z-score),[28],-0.002
same,glycan array binding signal (z-score),[29],-0.312
same,glycan array binding signal (z-score),GlcNAc(b1-6)GalNAc,-0.195
same,glycan array binding signal (z-score),[30],0.135
same,glycan array binding signal (z-score),Kdn(a2-3)Gal(b1-3)GalNAc,-0.192
same,glycan array binding signal (z-score),Kdn(a2-3)Gal(b1-3)GlcNAc,-0.881
same,glycan array binding signal (z-score),Kdn(a2-3)Gal(b1-4)Glc,0.223
same,glycan array binding signal (z-score),Kdn(a2-3)Gal(b1-4)GlcNAc,-0.262
same,glycan array binding signal (z-score),[31],0.026
same,glycan array binding signal (z-score),Kdn(a2-6)Gal(b1-4)GlcNAc,-0.099
same,glycan array binding signal (z-score),[32],-0.433
same,glycan array binding signal (z-score),[33],-0.007
same,glycan array binding signal (z-score),Man(a1-2)Man(a1-3)Man,-0.482
same,glycan array binding signal (z-score),[34],-0.986
